Assay results as given in PMC12815461.
Substitutions are numbered along the chain they refer to. These are yes or no findings as the source states them, for the method shown. In cells and extracts the contact can be indirect. Some results given as binding are weak or reduced against the parent protein; the word gives no strength. Where a sequence is shown, tags or fusion partners need not be part of it.

The chains behind the UniProt entries cited, without tags or fusion partners.
UniProt Q12888: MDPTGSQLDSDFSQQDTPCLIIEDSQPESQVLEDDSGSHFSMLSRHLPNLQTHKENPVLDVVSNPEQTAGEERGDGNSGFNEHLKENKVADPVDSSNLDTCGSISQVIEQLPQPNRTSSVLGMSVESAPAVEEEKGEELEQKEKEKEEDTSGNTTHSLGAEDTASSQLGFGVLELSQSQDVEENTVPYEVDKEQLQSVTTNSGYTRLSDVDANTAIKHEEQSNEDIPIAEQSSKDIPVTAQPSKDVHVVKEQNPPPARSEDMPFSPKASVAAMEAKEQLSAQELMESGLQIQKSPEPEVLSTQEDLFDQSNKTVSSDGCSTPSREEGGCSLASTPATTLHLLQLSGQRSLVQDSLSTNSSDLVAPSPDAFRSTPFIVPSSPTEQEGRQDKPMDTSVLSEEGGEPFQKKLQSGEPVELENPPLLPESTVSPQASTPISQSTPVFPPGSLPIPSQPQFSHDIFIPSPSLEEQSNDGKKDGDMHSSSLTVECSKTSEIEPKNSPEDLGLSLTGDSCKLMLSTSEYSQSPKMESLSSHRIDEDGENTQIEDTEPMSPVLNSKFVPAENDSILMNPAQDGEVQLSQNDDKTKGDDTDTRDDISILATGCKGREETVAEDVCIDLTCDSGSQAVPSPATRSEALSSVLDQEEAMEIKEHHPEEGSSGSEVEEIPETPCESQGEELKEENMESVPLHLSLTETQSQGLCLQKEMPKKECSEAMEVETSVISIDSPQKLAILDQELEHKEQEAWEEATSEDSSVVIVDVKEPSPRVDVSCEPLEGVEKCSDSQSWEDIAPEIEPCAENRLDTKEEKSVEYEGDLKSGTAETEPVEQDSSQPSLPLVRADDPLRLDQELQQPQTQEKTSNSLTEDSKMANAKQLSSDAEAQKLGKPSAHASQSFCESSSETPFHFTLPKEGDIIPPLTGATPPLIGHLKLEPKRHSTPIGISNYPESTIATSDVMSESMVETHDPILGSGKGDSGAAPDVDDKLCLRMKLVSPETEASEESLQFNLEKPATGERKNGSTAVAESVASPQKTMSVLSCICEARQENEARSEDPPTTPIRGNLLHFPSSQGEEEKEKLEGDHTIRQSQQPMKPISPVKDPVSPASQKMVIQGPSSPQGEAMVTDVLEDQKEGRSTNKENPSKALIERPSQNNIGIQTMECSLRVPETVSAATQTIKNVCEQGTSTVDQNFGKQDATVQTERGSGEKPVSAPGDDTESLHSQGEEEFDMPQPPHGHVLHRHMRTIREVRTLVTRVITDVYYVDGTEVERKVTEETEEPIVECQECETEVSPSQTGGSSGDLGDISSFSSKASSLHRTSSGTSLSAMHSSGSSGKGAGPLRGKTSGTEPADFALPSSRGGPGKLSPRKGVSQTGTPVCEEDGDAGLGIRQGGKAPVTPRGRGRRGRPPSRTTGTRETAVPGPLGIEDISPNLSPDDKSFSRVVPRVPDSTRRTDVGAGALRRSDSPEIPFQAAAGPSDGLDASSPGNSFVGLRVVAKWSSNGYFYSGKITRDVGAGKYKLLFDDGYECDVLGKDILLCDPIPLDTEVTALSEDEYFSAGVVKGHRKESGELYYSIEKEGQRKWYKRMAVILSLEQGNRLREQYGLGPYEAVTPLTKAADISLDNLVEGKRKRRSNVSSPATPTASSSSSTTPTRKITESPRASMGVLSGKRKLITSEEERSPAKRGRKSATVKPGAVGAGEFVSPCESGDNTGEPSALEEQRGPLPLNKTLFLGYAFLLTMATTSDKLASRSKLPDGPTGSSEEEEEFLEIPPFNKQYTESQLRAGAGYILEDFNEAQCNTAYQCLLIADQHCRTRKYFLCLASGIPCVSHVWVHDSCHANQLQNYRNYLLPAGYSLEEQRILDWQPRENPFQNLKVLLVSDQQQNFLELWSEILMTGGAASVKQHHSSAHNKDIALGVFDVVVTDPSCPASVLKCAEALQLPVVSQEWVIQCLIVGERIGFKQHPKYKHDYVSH

How the values were obtained:
[1] = target: T1, FLAG-tagged GMCL1 R433A (human) (UniProt Q96IK5); test: co-IP; FLAG-GMCL1 variants or FLAG-GMCL2 transfected into HEK293T (Figure 1C with MLN4924 for 3 hr); FLAG-M2 magnetic beads, 4 °C, 2 hr; wash buffer 50 mM Tris-HCl pH 7.5, 150 mM NaCl, 0.2% NP-40; immunoblot for endogenous 53BP1 and CUL3
T1 sequence: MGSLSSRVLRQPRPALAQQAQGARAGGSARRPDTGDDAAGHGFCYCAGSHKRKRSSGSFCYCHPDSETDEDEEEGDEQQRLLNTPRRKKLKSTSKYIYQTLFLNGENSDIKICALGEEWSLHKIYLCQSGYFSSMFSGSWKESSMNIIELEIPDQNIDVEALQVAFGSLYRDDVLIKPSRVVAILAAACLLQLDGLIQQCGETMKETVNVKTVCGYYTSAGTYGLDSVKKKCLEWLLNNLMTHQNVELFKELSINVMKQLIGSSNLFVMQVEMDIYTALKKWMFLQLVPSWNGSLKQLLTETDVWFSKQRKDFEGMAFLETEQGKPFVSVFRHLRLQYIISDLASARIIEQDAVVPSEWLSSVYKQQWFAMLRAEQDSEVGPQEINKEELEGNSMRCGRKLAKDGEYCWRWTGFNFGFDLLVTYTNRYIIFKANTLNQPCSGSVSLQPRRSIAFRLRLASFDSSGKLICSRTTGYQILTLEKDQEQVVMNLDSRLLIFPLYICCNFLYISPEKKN

[2] = target: T2, FLAG-tagged GMCL2 (human) (UniProt Q8NEA9); test: as above
T2 sequence: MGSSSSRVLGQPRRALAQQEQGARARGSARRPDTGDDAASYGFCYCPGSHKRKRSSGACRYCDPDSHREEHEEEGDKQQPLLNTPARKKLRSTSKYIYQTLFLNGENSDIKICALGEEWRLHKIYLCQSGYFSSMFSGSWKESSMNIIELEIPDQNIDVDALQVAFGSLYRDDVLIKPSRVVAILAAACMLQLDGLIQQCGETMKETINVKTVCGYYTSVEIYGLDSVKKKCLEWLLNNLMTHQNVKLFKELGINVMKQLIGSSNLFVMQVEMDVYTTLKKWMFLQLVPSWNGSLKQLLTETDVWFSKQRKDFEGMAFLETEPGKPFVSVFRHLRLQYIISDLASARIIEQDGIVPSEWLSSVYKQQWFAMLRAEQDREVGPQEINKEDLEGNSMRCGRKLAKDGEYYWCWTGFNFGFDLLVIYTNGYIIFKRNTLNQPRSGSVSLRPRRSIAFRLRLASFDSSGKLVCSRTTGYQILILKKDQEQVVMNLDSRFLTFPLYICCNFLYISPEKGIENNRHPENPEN

[3] = target: T3, FLAG-tagged wild-type GMCL1 (germ cell-less protein-like 1) (human) (UniProt Q96IK5); test: as above
T3 sequence: T1 sequence with A433R

[4] = target: T4, endogenous GMCL1 with a knocked-in C-terminal 2x FLAG tag (HCT116) (human (endogenous in HCT116)) (UniProt Q96IK5); test: co-IP; M phase-synchronized GMCL1 FLAG knock-in HCT116 cells; GMCL1 immunoprecipitated with FLAG beads, immunoblot
T4 sequence: T1 sequence with A433R

| Substance | binding [1] | binding [2] | binding [3] | binding [4] |
| --- | --- | --- | --- | --- |
| 53BP1 (p53-binding protein 1), endogenous in HEK293T (from UniProt Q12888 1-1972) | no binding | no binding | binds |  |
| 53BP1, endogenous in HCT116 (from UniProt Q12888 1-1972) |  |  |  | binds |
